55 compounds from PubChem BioAssay AID1645887 (National Center for Advancing Translational Sciences (NCATS), 2021) can be followed below.

“And” between values parts separate entries of the source, which are not always exact repeats. Equal entries are not always repeated. The whole screen tested about 16,000 compounds, of which about 40 (0.2%) were called active. Not shown: some 1% with an inconclusive outcome. Calls come from the whole dose curve; as a rule, active = well fitted activation curve with a large enough effect; inconclusive = small, poorly fitted or top-dose-only effect, or another doubt; inactive = no such curve, though single readings can be large or run the other way. Some of the results follow.
% is set by controls: 0 for no effect and ±100 for the full control effect.

The assay addresses Rap guanine nucleotide exchange factor 4 (Homo sapiens) (UniProt Q8WZA2). Put plainly: Validation qHTS for agonist of cAMP-regulated guanine nucleotide exchange factor 4 (EPAC2).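 Note: exchange makes BODIPY-GDP fluorescence drop when released from Rap1B; series mostly up to about 150 µM.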 Conditions: EPAC2 Rap1B BODIPY-GDP exchange, fluorescence; activation: stronger effect = higher value. The procedure, abridged: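 Signal normalized against 6.5 mM cAMP as agonist control. Mix of EPAC2 (100 nM), RAP1B-BODIPY-GDP (250 nM) and GDP (50 uM) was read kinetically at 480/540 nm, every 5 min over 30 min, after 5 min room-temperature incubation with compound.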
Sequence of UniProt Q8WZA2 (Q8WZA2 whole entry, looked up): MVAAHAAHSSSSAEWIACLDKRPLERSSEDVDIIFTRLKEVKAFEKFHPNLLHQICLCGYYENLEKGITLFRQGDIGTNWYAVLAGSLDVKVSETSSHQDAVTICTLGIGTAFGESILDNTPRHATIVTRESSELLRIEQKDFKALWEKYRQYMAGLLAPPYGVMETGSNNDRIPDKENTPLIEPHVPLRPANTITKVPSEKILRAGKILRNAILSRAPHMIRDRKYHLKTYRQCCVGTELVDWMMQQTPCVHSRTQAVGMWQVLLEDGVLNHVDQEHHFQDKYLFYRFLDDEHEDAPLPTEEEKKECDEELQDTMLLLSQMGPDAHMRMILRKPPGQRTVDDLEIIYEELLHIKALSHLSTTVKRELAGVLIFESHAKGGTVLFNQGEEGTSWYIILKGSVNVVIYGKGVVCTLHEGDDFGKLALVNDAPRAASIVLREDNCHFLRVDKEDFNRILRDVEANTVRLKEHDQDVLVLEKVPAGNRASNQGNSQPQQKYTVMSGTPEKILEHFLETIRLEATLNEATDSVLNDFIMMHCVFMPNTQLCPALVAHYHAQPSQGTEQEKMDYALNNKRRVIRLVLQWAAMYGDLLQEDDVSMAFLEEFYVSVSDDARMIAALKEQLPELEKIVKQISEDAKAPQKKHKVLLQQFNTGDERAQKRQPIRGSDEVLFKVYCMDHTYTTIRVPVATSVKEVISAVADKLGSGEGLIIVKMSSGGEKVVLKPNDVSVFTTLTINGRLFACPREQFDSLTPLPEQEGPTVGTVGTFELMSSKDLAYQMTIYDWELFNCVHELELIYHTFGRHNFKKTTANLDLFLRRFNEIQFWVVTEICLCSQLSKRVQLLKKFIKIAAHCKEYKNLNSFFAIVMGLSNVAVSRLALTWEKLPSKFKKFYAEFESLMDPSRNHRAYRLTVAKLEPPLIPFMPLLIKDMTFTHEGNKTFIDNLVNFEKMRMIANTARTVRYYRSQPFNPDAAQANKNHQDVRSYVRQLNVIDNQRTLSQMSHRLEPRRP
(qHTS replaces the single test concentration by a dilution series.)
On to `COc1ccc(NC(=O)N2CCCC3(CCN(C(C)=O)CC3)C2)cc1`, for which the activation was inactive: -9.58%.

With `O=c1c(-c2cccs2)nc2cnc(N3CCOCC3)nc2n1Cc1ccc(F)cc1`, the activation was inactive: -5.83%.

As for `Cc1cccc2nc(CNC(=O)CN3Cc4cc(Cl)ccc4OC(C)C3)cn12` (stereo not given), the activation was inactive: -9.24%.

For `C[C@@H](NCc1cc(Br)cc2[nH]c(=O)c(=O)[nH]c12)P(=O)(O)O`, the activation is inactive: -16.2%.

As to `CNC(=O)[C@@H]1C[C@@H](NCc2cccc(Oc3ccccc3)c2)CN1C(C)C`, the activation was inactive: -11.3%.

On to `O=Cc1ccccc1-c1cn(CCCOCc2ccccc2)nn1`, for which the activation was inactive: -9.9%.

`O=C(O)c1cn(-c2ccc(F)cc2)c2cc(N3CCNCC3)c(F)cc2c1=O`: the activation was inactive: -25.1%.

For `CCCCCCCCCCCCCCC[C@@H](O)[C@H](CO)NC(C)=O`, the activation is inactive: -5.46%.

`C#C[C@]1(O)CCC2C3CCC4=Cc5oncc5C[C@@]4(C)C3CC[C@@]21C` (stereo not given in full): the activation was inactive: 19%.

`COc1ccc(C(=O)NCCN2Cc3ccccc3OC(c3ccsc3)C2)c(OC)n1` (stereo not given): the activation is inactive: 9.15%.

For `Cc1cnc(C)c(-c2cc(F)cc3c2OC(CNC(=O)CN2CCCC2)C3)n1` (stereo not given), the activation is inactive: -8.84%.

Turning to `CN(C)C(=O)c1ccc(-c2ccc3ncnc(N4CCNCC4)c3c2)cc1`, the activation is inactive: -0.601%.

Regarding `Cc1nc2ccc(C(=O)N3CCc4c(cnc(C)c4CNC(=O)/C=C/c4cccs4)C3)cc2nc1C`, the activation was inactive: 3.96%.

As for `Nc1nc2c([nH]c(=S)n2C2OC(CO)C(O)C2O)c(=O)[nH]1` (stereo not given), the activation was inactive: -15.7%.

Turning to `CN(C)c1ncc2nc(-c3ccccc3)c(=O)n(Cc3ccc(F)cc3)c2n1`, the activation was inactive: 2.95%.

In the case of `c1cn(-c2ccnc(-c3ccc4c(c3)OCO4)n2)cn1`, the activation is inactive: -2.96%.

On to `O=C1NC(=O)[C@H]2[C@@H]1[C@@H]1C=C[C@H]2C1`, for which the activation was inactive: 1.71%.

As for `Cc1cnc(CNc2ccnc(-c3ccccc3Cl)n2)cn1`, the activation is inactive: -4.08%.

Take `Cc1cc(-c2ccnc(-n3ncc(C(=O)NCCc4ccncc4)c3C)n2)c(C)s1`: the activation was inactive: -8.22%.

For the compound `CS(=O)(=O)c1ccc(-c2ccc3c(c2)CC(CNC(=O)C2(N4CCOCC4)CCCCC2)O3)cc1` (stereo not given), the activation was inactive: -6.38%.

With `O=C(Nc1cccc(F)c1)N1CCCC2(CCN(C(=O)c3cccc(F)c3)CC2)C1`, the activation was inactive: -4.4%.

For `COc1ccc(-c2nc3cnc(OC)nc3n(C[C@H]3CCCO3)c2=O)cc1`, the activation was inactive: -6.48%.

On to `Cc1ccnc2cc(Cl)cc(Cl)c12`, for which the activation was inactive: -1.99%.

`CCCCCCCCCCCCCCCC(=O)O[C@H]1[C@@H](O)[C@@H](O)[C@@H]([C@H](NC(=O)[C@@H]2C[C@@H](CCC)CN2C)[C@H](C)Cl)O[C@@H]1SC`: the activation was inactive: -51.3%.

Turning to `CC(=O)Oc1ccc2c(c1OC(C)=O)OCC1(O)Cc3c(cc(OC(C)=O)c(OC(C)=O)c3OC(C)=O)C21` (stereo not given), the activation is inactive: -2.49%.

Take `O=C(c1ccncc1)N1CCC[C@@]2(CCN(Cc3ccccc3)C2)C1`: the activation was inactive: 5.24%.

Take `Cc1nnc(C(=O)NC(C)(C)c2nc(C(=O)NCc3ccc(F)cc3)c(O)c(=O)n2C)o1`: the activation is inactive: -0.147%.

As to `CC(=O)NCCNc1ncnc2ccc(-c3ccccc3C#N)cc12`, the activation was inactive: -7.88%.

For `COc1ccccc1-c1ccc2ncnc(N3CCOCC3)c2c1`, the activation was inactive: -5.42%.

For `CN1C2CCC1CC(OC(=O)c1c[nH]c3ccccc13)C2` (stereo not given), the activation is inactive: -37.1%.

For the compound `O=C(Cn1cc2ccccc2n1)N1CCOc2ccc(C(O)C3CCCCC3)cc2C1` (stereo not given), the activation was inactive: -36.5%.

Consider `Cc1ccccc1OCC(O)CNCCOc1ccc(C(N)=O)cc1` (stereo not given), for which the activation is inactive: 6.08%.

In the case of `O=C(NCCc1nnc2n1CCN(Cc1c(F)cccc1F)CC2)c1ccc(F)cc1`, the activation was inactive: 2.68%.

Consider `CC(C)NC[C@H](O)c1ccc2ccccc2c1`, for which the activation is inactive: -4.19%.

On to `c1ncc(-c2ccc3c(c2)OCO3)c(NCCc2cnc[nH]2)n1`, for which the activation is inactive: -19.7%.

With `NC(=NC1C2CC3CC(C2)CC1C3)Nc1ccc(I)cc1` (stereo not given), the activation is inactive: -20.4% and inactive: -0.594% and inactive: -2.71%.

Take `CN1CCN(C2=Nc3ccccc3Oc3ccc(Cl)cc32)CC1`: the activation is inactive: -8.12% and inactive: -5.4% and inactive: -53.6%.

Take `Cc1ncc2c(c1CNS(=O)(=O)N(C)C)CCN(C(=O)/C=C/c1cccc(F)c1)C2`: the activation is inactive: -4.96%.

`COc1ccc(NC(=O)N2CCC3(CC2)CCN(C(=O)c2ccncc2)CC3)cc1`: the activation is inactive: -35.9%.

For the compound `COc1c2occc2cc2ccc(=O)oc12`, the activation is inactive: -8.12% and inactive: -2.67% and inactive: 13.2%.

On to `CC1=CC[C@@]2(CO)COC(c3ccccc3O)C1C2` (stereo not given in full), for which the activation is inactive: -0.406%.

As to `CC(C)CN1CCC2(CC1)CCN(C(=O)c1ccncc1)CC2`, the activation was inactive: -19.7%.

In the case of `O=C(NN1CCCC1)NS(=O)(=O)c1ccc(Cl)cc1`, the activation is inactive: -5.84%.

With `CCCCC/C=C\C/C=C\CCCCCCCC(=O)O[C@@H](CO)COC(=O)CCCCCCCCCCCCCCCCC`, the activation is inactive: 1.06%.

For `NCc1ccccc1CC(=O)N[C@@H]1C(=O)N2C(C(=O)O)=C(CSc3nnnn3CC(=O)O)CS[C@H]12`, the activation was inactive: 0.0791%.

Take `CCc1ccccc1OC[C@@H](O)CN[C@H]1CCCc2ccccc21`: the activation is inactive: -5.42%.

Turning to `Cc1sc2ccccc2[n+]1CCC[n+]1c(C)sc2ccccc21`, the activation was inactive: 4.56%.

Regarding `CN1CCN(c2ncncc2-c2ccccc2Cl)CC1`, the activation is inactive: -13%.

`O=C(O)C[C@H]1c2cc(C(F)(F)F)ccc2S(=O)(=O)N1C1CCCC1`: the activation was inactive: -20%.

Consider `COc1ccccc1C1CN(CC(=O)N2CCC(C(O)c3ccccn3)CC2)Cc2ccccc2O1` (stereo not given), for which the activation is inactive: -12.8%.

On to `Cc1cccc(C)c1Nc1ncccc1C(=O)O`, for which the activation was inactive: -0.571%.

Regarding `COc1ccc(CNC(=O)C2CCCN2c2nc(C)c3ccccc3n2)cc1` (stereo not given), the activation is inactive: 8%.

`Cc1cc[n+](CCC2CCCCC2)cc1`: the activation was inactive: -1.9%.

As to `COc1ncc2nc(-c3cn(C)c4ccccc34)c(=O)n(Cc3ccc(F)cc3)c2n1`, the activation was inactive: 1.2%.

On to `COc1cc(-c2cnc3ccccc3c2)cc2c1OCCN(S(=O)(=O)C[C@]13CC[C@H](CC1=O)C3(C)C)C2`, for which the activation is inactive: -0.507%.
